# Screen size: about 310,000 compounds; about 18,000 (5.8%) were called active. The inconclusive results got no clear call from the source; some entries with a clear call stand among them for comparison. The call rests on the fitted dose curve; in most records, active means well fitted inhibition curve with a large enough effect; inconclusive means small, poorly fitted or top-dose-only effect, or another doubt; inactive means no such curve, though single readings can be large or run the other way. No potency is given beside an inconclusive call; the fits are too rough.
# Assay: Primary qHTS for delayed death inhibitors of the malarial parasite plastid, 48 hour incubation
# Conditions: P. falciparum luciferase growth in erythrocytes; series mostly up to 28.7 µM; activity change, negative = inhibition: at the top concentration
# How it was run: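 Luminescence readout; reporter = integrated firefly luciferase in P. falciparum. RBC culture at 2% hematocrit, 0.1% parasitemia final, 37 C/5% CO2; decreased signal taken as growth inhibition.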
# On the % scale 0 is the no-effect control and ±100 the full control effect; potency means the concentration at half of the fitted maximal effect; tags describe the fitted curve by direction and shape.
SMILES,Potency,"activity change, negative = inhibition"
CC1CCc2cc(F)ccc2N1C(=O)CCl (centres undefined),"inconclusive [inhibitor, partial curve]",
CCOC(=O)N1CCN(c2cc(NCCO)c([N+](=O)[O-])c3nonc23)CC1,"inconclusive [inhibitor, partial curve, poor fit]",
O=C(NC(NC(=S)Nc1ccc(Cl)cc1)C(Cl)(Cl)Cl)c1ccco1 (centres undefined),active: 10.4 µM,
C[C@@]12CC(=O)NC1N(C(=O)c1ccccc1)C(c1ccccc1OC(=O)c1ccccc1)C2 (some centres undefined),"inconclusive [inhibitor, single point]",
CCSc1nnc(NC(=O)c2cnccn2)s1,,inactive: 13.8%
CCCCCN1CN(S(=O)(=O)c2cccs2)c2nc3ccccc3nc21,"inconclusive [inhibitor, single point]",
CN(Cc1ncc[nH]1)Cc1cn(-c2ccccc2)nc1-c1ccc2c(c1)OCO2,"inconclusive [inhibitor, partial curve]",
CC(C)c1nc2sc3c(c2c(=O)[nH]1)CC(C)(C)OC3,,inactive: 24%
COc1ccc(-n2c(Cc3cccn3C)nnc2SCC(=O)Nc2ccccc2)cc1,active: 11.7 µM,
NC(=O)CSC1=N/C(=C\c2ccco2)C(=O)N1c1ccc(OC(F)F)cc1,"inconclusive [inhibitor, single point]",
Cc1nn(Cc2cccc(C(=O)Nc3ccn(Cc4ccccc4)n3)c2)c(C)c1[N+](=O)[O-],"inconclusive [inhibitor, partial curve]",
COc1ccc(C(=O)Nc2cc(OC)cc3cccnc23)cc1,,inactive: 34.7%
COc1cc(O)oc1C=Nc1ccc(C(=O)O)cc1,"inconclusive [inhibitor, partial curve, poor fit]",
O=C(Cc1ccc(S(=O)(=O)N2CCOCC2)s1)Nc1cc(C(F)(F)F)cc(C(F)(F)F)c1,"inconclusive [inhibitor, single point]",
CCOC(=O)C1CCCN(Cc2nc(N)nc(Nc3ccc(C)cc3)n2)C1 (centres undefined),"inconclusive [inhibitor, single point]",
O=C(Nc1ccccc1F)C1CCCN1S(=O)(=O)c1ccc(Cl)cc1 (centres undefined),"inconclusive [inhibitor, partial curve, poor fit]",
CCOc1ccc(OCC(=O)Nc2ccccc2N2CCCC2)cc1,"inconclusive [inhibitor, single point]",
CCN(CC)CCSc1nnc2c3ccccc3n(Cc3ccccc3)c2n1,active: 5.22 µM,
CCOc1ccc(CCNC(=O)C(C)n2nc(C)c3c(C)n(-c4ccccc4)nc3c2=O)cc1 (centres undefined),"inconclusive [inhibitor, partial curve, poor fit]",
